Data: patent US20260234211A1, “POLYPEPTIDE HAVING MODIFIED STRUCTURE AND USE THEREOF” (Guangdong Raynovent Biotech Co., Ltd., priority 2023, published 2026)
Part of at least one peptide drawing is inferred or uncertain, most often the ends.

Experiments:
Format in all cases: cell-based
GLP-1R = target: T1, GLP-1R (Homo sapiens, UniProt P43220); assay: In vitro GLP-1R agonistic activity test (cAMP, HEK293 cell line); conditions: HEK293 cells expressing GLP-1R
T1 construct: host or cells: HEK293
Experimental: (§1) The cell lines were constructed by Pharmaron Inc. See details in the table below.
(§2) The test compounds were diluted at a 5-fold dilution factor in 10 points, starting from an initial concentration of 200 nM.
(§3) 1) The cell lines were cultured respectively in complete medium at 37° C. and 5% CO2.
(§4) 1) Eu-cAMP tracer was freeze-thawed and diluted 50 fold with detection buffer; and Ulight-anti-cAMP was freeze-thawed and diluted 150 fold with detection buffer.
(§5) 3) 10 μL of Eu-cAMP tracer was added and then 10 μL of Uligh-anti-cAMP was added into experimental wells respectively.
(§6) 4) The reaction plate was centrifuged at 200 g at room temperature for 30 s and left for stand at 25° C. for 1 h.

GCGR = target: T2, GCGR (Homo sapiens, UniProt P47871); assay: In vitro GCGR agonistic activity test (cAMP, HEK293 cell line); conditions: HEK293 cells expressing GCGR, read-out: GCG EC50
T2 construct: host or cells: HEK293
T2 sequence (P47871 26-477, species assumed): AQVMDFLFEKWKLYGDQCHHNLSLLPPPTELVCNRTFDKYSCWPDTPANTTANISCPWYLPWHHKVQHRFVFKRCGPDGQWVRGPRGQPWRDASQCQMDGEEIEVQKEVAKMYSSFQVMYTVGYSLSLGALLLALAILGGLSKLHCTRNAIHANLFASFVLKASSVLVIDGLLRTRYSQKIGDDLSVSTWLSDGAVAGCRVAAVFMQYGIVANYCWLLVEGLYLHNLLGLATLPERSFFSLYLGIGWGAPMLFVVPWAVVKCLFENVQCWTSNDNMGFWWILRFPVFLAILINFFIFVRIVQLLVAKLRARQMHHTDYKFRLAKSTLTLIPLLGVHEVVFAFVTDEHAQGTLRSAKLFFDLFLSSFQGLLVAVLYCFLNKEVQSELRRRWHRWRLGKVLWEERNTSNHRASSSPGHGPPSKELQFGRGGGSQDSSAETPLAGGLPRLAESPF
Experimental: as §1, §2, §3
2) After digestion with TrypLE, the cells were re-suspended in experimental buffer respectively, and inoculated in a CulturPlate-384 cell culture plate at a density of 2000 cells/well and at a volume of 15 μL/well.
as §4
2) 5 μL of the test compounds were added respectively into experimental wells of the CulturPlate-384 cell culture plate, which was centrifuged at 200 g for 30 s, and left for stand at 37° C. for 30 min.
as §5, §6
5) Envision 2105 was used to collect data, with excitation light at 340 nm and emission light at 665 nm and 615 nm.

GIPR = target: T3, GIPR (Homo sapiens, UniProt P48546); assay: In vitro GIPR agonistic activity test (cAMP, CHO cell line); conditions: CHO cells expressing GIPR, read-out: GIP-1 EC50
T3 construct: host or cells: CHO
T3 sequence (P48546 22-466): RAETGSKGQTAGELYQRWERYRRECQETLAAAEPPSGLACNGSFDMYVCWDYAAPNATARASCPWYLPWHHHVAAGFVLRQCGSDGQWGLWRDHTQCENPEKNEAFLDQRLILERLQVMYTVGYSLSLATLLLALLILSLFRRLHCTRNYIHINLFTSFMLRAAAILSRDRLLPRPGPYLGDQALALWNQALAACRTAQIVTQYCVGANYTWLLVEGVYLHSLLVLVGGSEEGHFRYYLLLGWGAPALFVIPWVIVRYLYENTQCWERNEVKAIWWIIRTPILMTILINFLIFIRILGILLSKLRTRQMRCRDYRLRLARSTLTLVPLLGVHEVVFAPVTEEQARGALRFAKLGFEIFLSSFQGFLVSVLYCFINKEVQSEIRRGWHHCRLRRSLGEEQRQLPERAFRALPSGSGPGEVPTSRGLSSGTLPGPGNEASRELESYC
Experimental: as §1, §2, §3, §4, §5, §6

T1 sequence (P43220 24-463, species assumed): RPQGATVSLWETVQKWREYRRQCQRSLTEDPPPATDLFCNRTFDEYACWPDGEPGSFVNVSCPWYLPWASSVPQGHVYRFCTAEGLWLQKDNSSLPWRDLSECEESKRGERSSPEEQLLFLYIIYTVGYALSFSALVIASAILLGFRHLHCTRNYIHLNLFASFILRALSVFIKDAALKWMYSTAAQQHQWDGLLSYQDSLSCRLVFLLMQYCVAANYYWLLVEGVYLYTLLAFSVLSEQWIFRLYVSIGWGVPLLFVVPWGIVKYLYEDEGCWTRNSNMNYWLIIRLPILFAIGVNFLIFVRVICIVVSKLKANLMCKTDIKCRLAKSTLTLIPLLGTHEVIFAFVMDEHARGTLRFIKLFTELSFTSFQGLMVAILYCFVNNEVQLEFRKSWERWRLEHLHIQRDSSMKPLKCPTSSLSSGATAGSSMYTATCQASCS

SMILES	EC50 (GLP-1R) [pM]	EC50 (GCGR) [nM]	EC50 (GIPR) [pM]
CC[C@H](C)[C@H](NC(=O)[C@H](Cc1ccccc1)NC(=O)[C@H]1CCCCNC(=O)CN(C(=O)COCCOCCNC(=O)COCCOCCNC(=O)CC[C@H](NC(=O)CCCCCCCCCCCCCCCCCCC(=O)O)C(=O)O)CC(=O)NCCCC[C@H](NC(=O)[C@H](CCCCN)NC(=O)[C@H](CC(=O)O)NC(=O)[C@H](CC(C)C)NC(=O)[C@](C)(CC(C)C)NC(=O)[C@@H](NC(=O)[C@H](CO)NC(=O)[C@H](Cc2ccc(O)cc2)NC(=O)[C@H](CC(=O)O)NC(=O)[C@H](CO)NC(=O)[C@@H](NC(=O)[C@H](Cc2ccccc2)NC(=O)[C@@H](NC(=O)CNC(=O)[C@H](CCC(N)=O)NC(=O)C(C)(C)NC(=O)[C@@H](N)Cc2ccc(O)cc2)[C@@H](C)O)[C@@H](C)O)[C@@H](C)CC)C(=O)N[C@@H](C)C(=O)N[C@@H](CCC(N)=O)C(=O)NC(C)(C)C(=O)N1)C(=O)N[C@@H](CCC(=O)O)C(=O)N[C@@H](Cc1ccc(O)cc1)C(=O)N[C@@H](CC(C)C)C(=O)N[C@@H](CC(C)C)C(=O)N[C@@H](CCC(=O)O)C(=O)NCC(=O)NCC(=O)N1CCC[C@H]1C(=O)N[C@@H](CO)C(=O)N[C@@H](CO)C(=O)NCC(=O)N[C@@H](C)C(=O)N1CCC[C@H]1C(=O)N1CCC[C@H]1C(=O)N1CCC[C@H]1C(=O)N[C@@H](CO)C(N)=O [Example 16, YAibQGT FTSDY SIα- MeLLD KIKAQAib ^1d-KFIEY LLEGG PSSGA PPPS-NH2 (SEQ ID NO: 22)]	2	0.042	
CC[C@H](C)[C@@H]1NC(=O)[C@H](Cc2ccccc2)NC(=O)[C@@H](NC(=O)C(C)(C)NC(=O)[C@H](CCC(N)=O)NC(=O)[C@H](C)NC(=O)[C@H](CCCCN)NC(=O)[C@H](CCCCN)NC(=O)[C@H](CC(=O)O)NC(=O)[C@H](CC(C)C)NC(=O)[C@](C)(CC(C)C)NC(=O)[C@@H](NC(=O)[C@H](CO)NC(=O)[C@H](Cc2ccc(O)cc2)NC(=O)[C@H](CC(=O)O)NC(=O)[C@H](CO)NC(=O)[C@@H](NC(=O)[C@H](Cc2ccccc2)NC(=O)[C@@H](NC(=O)CNC(=O)[C@H](CCC(N)=O)NC(=O)C(C)(C)NC(=O)[C@@H](N)Cc2ccc(O)cc2)[C@@H](C)O)[C@@H](C)O)[C@@H](C)CC)CCCCNC(=O)CN(C(=O)[C@@H](N)CCCCNC(=O)[C@@H](N)CCCCNC(=O)CC[C@H](NC(=O)CCCCCCCCCCCCCCCCCCC(=O)O)C(=O)O)CC(=O)NCCCC[C@@H](C(=O)NCC(=O)NCC(=O)N2CCC[C@H]2C(=O)N[C@@H](CO)C(=O)N[C@@H](CO)C(=O)NCC(=O)N[C@@H](C)C(=O)N2CCC[C@H]2C(=O)N2CCC[C@H]2C(=O)N2CCC[C@H]2C(=O)N[C@@H](CO)C(N)=O)NC(=O)[C@H](CC(C)C)NC(=O)[C@H](CC(C)C)NC(=O)[C@H](Cc2ccccc2)NC(=O)[C@H](CCC(=O)O)NC1=O [Example 26, YAibQGT FTSDY SIα- MeLLD KKAQAib ^1KFIEF LL^1KGG PSSGA PPPS-NH2 (SEQ ID NO: 29)]	14	0.11	
CC[C@H](C)[C@H](NC(=O)[C@H](Cc1ccccc1)NC(=O)[C@H](C)NC(=O)C(C)(C)NC(=O)[C@H](CCC(N)=O)NC(=O)[C@H](C)NC(=O)[C@H](CCCCN)NC(=O)[C@H](CCCCN)NC(=O)[C@H](CC(=O)O)NC(=O)[C@H](CC(C)C)NC(=O)[C@](C)(CC(C)C)NC(=O)[C@@H](NC(=O)[C@H](CO)NC(=O)[C@H](Cc1ccc(O)cc1)NC(=O)[C@H](CC(=O)O)NC(=O)[C@H](CO)NC(=O)[C@@H](NC(=O)[C@H](Cc1ccccc1)NC(=O)[C@@H](NC(=O)CNC(=O)[C@H](CCC(N)=O)NC(=O)C(C)(C)NC(=O)[C@@H](N)Cc1ccc(O)cc1)[C@@H](C)O)[C@@H](C)O)[C@@H](C)CC)C(=O)N[C@H]1CCCCNC(=O)CN(C(=O)COCCOCCNC(=O)COCCOCCNC(=O)CC[C@H](NC(=O)CCCCCCCCCCCCCCCCCCC(=O)O)C(=O)O)CC(=O)NCCCC[C@@H](C(=O)NCC(=O)NCC(=O)N2CCC[C@H]2C(=O)N[C@@H](CO)C(=O)N[C@@H](CO)C(=O)NCC(=O)N[C@@H](C)C(=O)N2CCC[C@H]2C(=O)N2CCC[C@H]2C(=O)N2CCC[C@H]2C(=O)N[C@@H](CO)C(N)=O)NC(=O)[C@H](CC(C)C)NC(=O)[C@H](CC(C)C)NC(=O)[C@H](Cc2c[nH]c3ccccc23)NC1=O [Example 2, YAibQGT FTSDY SIα- MeLLD KKAQAib AFI^1KW LL^1KGG PSSGA PPPS-NH2 (SEQ ID NO: 2)]	9		1
CC[C@H](C)[C@H](NC(=O)[C@H](Cc1ccccc1)NC(=O)[C@H](C)NC(=O)C(C)(C)NC(=O)[C@H](CCC(N)=O)NC(=O)[C@H](C)NC(=O)[C@H](CCCCN)NC(=O)[C@@H]1CCCCNC(=O)CN(C(=O)[C@@H](N)CCCCNC(=O)[C@@H](N)CCCCNC(=O)CC[C@H](NC(=O)CCCCCCCCCCCCCCCCCCC(=O)O)C(=O)O)CC(=O)NCCCC[C@H](NC(=O)[C@H](CO)NC(=O)[C@H](Cc2ccc(O)cc2)NC(=O)[C@H](CC(=O)O)NC(=O)[C@H](CO)NC(=O)[C@@H](NC(=O)[C@H](Cc2ccccc2)NC(=O)[C@@H](NC(=O)CNC(=O)[C@H](CCC(N)=O)NC(=O)C(C)(C)NC(=O)[C@@H](N)Cc2ccc(O)cc2)[C@@H](C)O)[C@@H](C)O)C(=O)N[C@@](C)(CC(C)C)C(=O)N[C@@H](CC(C)C)C(=O)N[C@@H](CC(=O)O)C(=O)N1)C(=O)N[C@@H](CCC(=O)O)C(=O)N[C@@H](Cc1ccccc1)C(=O)N[C@@H](CC(C)C)C(=O)N[C@@H](CC(C)C)C(=O)N[C@@H](CCC(=O)O)C(=O)NCC(=O)NCC(=O)N1CCC[C@H]1C(=O)N[C@@H](CO)C(=O)N[C@@H](CO)C(=O)NCC(=O)N[C@@H](C)C(=O)N1CCC[C@H]1C(=O)N1CCC[C@H]1C(=O)N1CCC[C@H]1C(=O)N[C@@H](CO)C(N)=O [Example 28, YAibQGT FTSDY S^1Kα- MeLLD ^1KKAQAib AFIEF LLEGG PSSGA PPPS-NH2 (SEQ ID NO: 31)]		0.11	
